Laboratory results as given in publication PMC12820563.
The other results are listed elsewhere or left out. The list includes weakly bound sequences.

The sequences below were run against T1, MBP-FoxP3dN (UniProt Q99JB6) (assay: PD-seq (MBP pull-down with sequencing)). Conditions: 20 mM Tris-HCl pH 7.5, 100 mM NaCl, 1.5 mM MgCl2, 0.4 uM protein, 0.1 uM dsDNA library, 30 min, room temperature, amylose pull-down; high values mean tight binding; double strand, one strand shown.
T1 sequence: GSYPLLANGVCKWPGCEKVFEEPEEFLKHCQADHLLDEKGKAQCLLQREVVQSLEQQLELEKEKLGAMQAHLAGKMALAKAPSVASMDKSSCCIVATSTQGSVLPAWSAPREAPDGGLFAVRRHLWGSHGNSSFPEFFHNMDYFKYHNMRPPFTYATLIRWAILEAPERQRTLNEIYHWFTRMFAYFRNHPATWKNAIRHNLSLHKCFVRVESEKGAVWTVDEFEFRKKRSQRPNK

| Sequence | binding signal (RPM ratio (pull-down/input)) |
| --- | --- |
| GATGATTGTTCTCCCAGCTGATGAATTGCACCTATCGAGTAAACAAATTTTCCTAATCTTTCTGTTCAAGCGCCATCTAC | 1.12 |
| GATGATTGTTCTCCCAGCTGATGAATTCCGAGTCTCGAGTAAACAAATTTTCCTAATCTTTCTGTTCAAGCGCCATCTAC | 1.2 |
| GATGATTGTTCTCCCAGCTGATGAATTGACCCTGTCGAGTAAACAAATTTTCCTAATCTTTCTGTTCAAGCGCCATCTAC | 0.254 |
| GATGATTGTTCTCCCAGCTGATGAATTGAGCCGATCGAGTAAACAAATTTTCCTAATCTTTCTGTTCAAGCGCCATCTAC | 0.418 |
| GATGATTGTTCTCCCAGCTGATGAATTGCTGTCCTCGAGTAAACAAATTTTCCTAATCTTTCTGTTCAAGCGCCATCTAC | 0.937 |
| GATGATTGTTCTCCCAGCTGATGAATTCCTTGAGTCGAGTAAACAAATTTTCCTAATCTTTCTGTTCAAGCGCCATCTAC | 0.211 |
| GATGATTGTTCTCCCAGCTGATGAATTACTCTCGTCGAGTAAACAAATTTTCCTAATCTTTCTGTTCAAGCGCCATCTAC | 0.275 |
| GATGATTGTTCTCCCAGCTGATGAATTTCGCAACTCGAGTAAACAAATTTTCCTAATCTTTCTGTTCAAGCGCCATCTAC | 5.53 |
| GATGATTGTTCTCCCAGCTGATGAATTAAGATTTTCGAGTAAACAAATTTTCCTAATCTTTCTGTTCAAGCGCCATCTAC | 0.512 |
| GATGATTGTTCTCCCAGCTGATGAATTGGCAGCCTCGAGTAAACAAATTTTCCTAATCTTTCTGTTCAAGCGCCATCTAC | 0.527 |
| GATGATTGTTCTCCCAGCTGATGAATTACTACAGTCGAGTAAACAAATTTTCCTAATCTTTCTGTTCAAGCGCCATCTAC | 0.403 |
| GATGATTGTTCTCCCAGCTGATGAATTATTCGGGTCGAGTAAACAAATTTTCCTAATCTTTCTGTTCAAGCGCCATCTAC | 0.268 |
| GATGATTGTTCTCCCAGCTGATGAATTGGGATCATCGAGTAAACAAATTTTCCTAATCTTTCTGTTCAAGCGCCATCTAC | 0.419 |
| GATGATTGTTCTCCCAGCTGATGAATTCGCATGGTCGAGTAAACAAATTTTCCTAATCTTTCTGTTCAAGCGCCATCTAC | 1.42 |
| GATGATTGTTCTCCCAGCTGATGAATTCCCCATGTCGAGTAAACAAATTTTCCTAATCTTTCTGTTCAAGCGCCATCTAC | 0.259 |
| GATGATTGTTCTCCCAGCTGATGAATTAGCTTGGTCGAGTAAACAAATTTTCCTAATCTTTCTGTTCAAGCGCCATCTAC | 1.84 |
| GATGATTGTTCTCCCAGCTGATGAATTGGCTCCATCGAGTAAACAAATTTTCCTAATCTTTCTGTTCAAGCGCCATCTAC | 0.298 |
| GATGATTGTTCTCCCAGCTGATGAATTCAATCATTCGAGTAAACAAATTTTCCTAATCTTTCTGTTCAAGCGCCATCTAC | 0.715 |
| GATGATTGTTCTCCCAGCTGATGAATTCAACAATTCGAGTAAACAAATTTTCCTAATCTTTCTGTTCAAGCGCCATCTAC | 0.542 |
| GATGATTGTTCTCCCAGCTGATGAATTTTTCACATCGAGTAAACAAATTTTCCTAATCTTTCTGTTCAAGCGCCATCTAC | 0.311 |
| GATGATTGTTCTCCCAGCTGATGAATTAAAGGTATCGAGTAAACAAATTTTCCTAATCTTTCTGTTCAAGCGCCATCTAC | 0.42 |

| Sequence | binding signal (RPM ratio (pull-down/input)) |
| --- | --- |
| GATGATTGTTCTCCCAGCTGATGAATTCATCTATTCGAGTAAACAAATTTTCCTAATCTTTCTGTTCAAGCGCCATCTAC | 0.616 |
| GATGATTGTTCTCCCAGCTGATGAATTACACAAATCGAGTAAACAAATTTTCCTAATCTTTCTGTTCAAGCGCCATCTAC | 0.684 |
| GATGATTGTTCTCCCAGCTGATGAATTTTTTAAGTCGAGTAAACAAATTTTCCTAATCTTTCTGTTCAAGCGCCATCTAC | 0.204 |
| GATGATTGTTCTCCCAGCTGATGAATTTACTAACTCGAGTAAACAAATTTTCCTAATCTTTCTGTTCAAGCGCCATCTAC | 0.642 |
| GATGATTGTTCTCCCAGCTGATGAATTCTCCTTTTCGAGTAAACAAATTTTCCTAATCTTTCTGTTCAAGCGCCATCTAC | 0.224 |
| GATGATTGTTCTCCCAGCTGATGAATTACTACTTTCGAGTAAACAAATTTTCCTAATCTTTCTGTTCAAGCGCCATCTAC | 0.384 |
| GATGATTGTTCTCCCAGCTGATGAATTAACTAGCTCGAGTAAACAAATTTTCCTAATCTTTCTGTTCAAGCGCCATCTAC | 0.216 |
| GATGATTGTTCTCCCAGCTGATGAATTACGCCCCTCGAGTAAACAAATTTTCCTAATCTTTCTGTTCAAGCGCCATCTAC | 1.9 |
| GATGATTGTTCTCCCAGCTGATGAATTGCCCCGGTCGAGTAAACAAATTTTCCTAATCTTTCTGTTCAAGCGCCATCTAC | 0.287 |
| GATGATTGTTCTCCCAGCTGATGAATTTCACCGCTCGAGTAAACAAATTTTCCTAATCTTTCTGTTCAAGCGCCATCTAC | 0.268 |
| GATGATTGTTCTCCCAGCTGATGAATTGATATACTCGAGTAAACAAATTTTCCTAATCTTTCTGTTCAAGCGCCATCTAC | 1.22 |
| GATGATTGTTCTCCCAGCTGATGAATTACCGTACTCGAGTAAACAAATTTTCCTAATCTTTCTGTTCAAGCGCCATCTAC | 0.439 |
| GATGATTGTTCTCCCAGCTGATGAATTTGCCGGCTCGAGTAAACAAATTTTCCTAATCTTTCTGTTCAAGCGCCATCTAC | 0.385 |
| GATGATTGTTCTCCCAGCTGATGAATTTGGCAAATCGAGTAAACAAATTTTCCTAATCTTTCTGTTCAAGCGCCATCTAC | 0.573 |
| GATGATTGTTCTCCCAGCTGATGAATTAACGGAGTCGAGTAAACAAATTTTCCTAATCTTTCTGTTCAAGCGCCATCTAC | 0.204 |
| GATGATTGTTCTCCCAGCTGATGAATTGGGTAATTCGAGTAAACAAATTTTCCTAATCTTTCTGTTCAAGCGCCATCTAC | 0.698 |
| GATGATTGTTCTCCCAGCTGATGAATTCTTATCATCGAGTAAACAAATTTTCCTAATCTTTCTGTTCAAGCGCCATCTAC | 0.347 |
| GATGATTGTTCTCCCAGCTGATGAATTCGATCCCTCGAGTAAACAAATTTTCCTAATCTTTCTGTTCAAGCGCCATCTAC | 0.33 |
| GATGATTGTTCTCCCAGCTGATGAATTCATACAGTCGAGTAAACAAATTTTCCTAATCTTTCTGTTCAAGCGCCATCTAC | 0.384 |
| GATGATTGTTCTCCCAGCTGATGAATTGAATTTTTCGAGTAAACAAATTTTCCTAATCTTTCTGTTCAAGCGCCATCTAC | 0.705 |
| GATGATTGTTCTCCCAGCTGATGAATTCTCCGGGTCGAGTAAACAAATTTTCCTAATCTTTCTGTTCAAGCGCCATCTAC | 0.159 |

| Sequence | binding signal (RPM ratio (pull-down/input)) |
| --- | --- |
| GATGATTGTTCTCCCAGCTGATGAATTATTGATATCGAGTAAACAAATTTTCCTAATCTTTCTGTTCAAGCGCCATCTAC | 1.2 |
| GATGATTGTTCTCCCAGCTGATGAATTATGGTACTCGAGTAAACAAATTTTCCTAATCTTTCTGTTCAAGCGCCATCTAC | 0.774 |
| GATGATTGTTCTCCCAGCTGATGAATTGGACCTATCGAGTAAACAAATTTTCCTAATCTTTCTGTTCAAGCGCCATCTAC | 0.323 |
| GATGATTGTTCTCCCAGCTGATGAATTCTGGTTGTCGAGTAAACAAATTTTCCTAATCTTTCTGTTCAAGCGCCATCTAC | 1.33 |
| GATGATTGTTCTCCCAGCTGATGAATTCATGACGTCGAGTAAACAAATTTTCCTAATCTTTCTGTTCAAGCGCCATCTAC | 0.388 |
| GATGATTGTTCTCCCAGCTGATGAATTGGTCAGGTCGAGTAAACAAATTTTCCTAATCTTTCTGTTCAAGCGCCATCTAC | 0.286 |
| GATGATTGTTCTCCCAGCTGATGAATTTGTCAACTCGAGTAAACAAATTTTCCTAATCTTTCTGTTCAAGCGCCATCTAC | 1.96 |
| GATGATTGTTCTCCCAGCTGATGAATTTCATCGGTCGAGTAAACAAATTTTCCTAATCTTTCTGTTCAAGCGCCATCTAC | 0.273 |
| GATGATTGTTCTCCCAGCTGATGAATTGGCTACGTCGAGTAAACAAATTTTCCTAATCTTTCTGTTCAAGCGCCATCTAC | 0.371 |
| GATGATTGTTCTCCCAGCTGATGAATTAGCGCCTTCGAGTAAACAAATTTTCCTAATCTTTCTGTTCAAGCGCCATCTAC | 3.86 |
| GATGATTGTTCTCCCAGCTGATGAATTACTAATTTCGAGTAAACAAATTTTCCTAATCTTTCTGTTCAAGCGCCATCTAC | 0.454 |
| GATGATTGTTCTCCCAGCTGATGAATTTTCCCTGTCGAGTAAACAAATTTTCCTAATCTTTCTGTTCAAGCGCCATCTAC | 0.171 |
| GATGATTGTTCTCCCAGCTGATGAATTATCAAACTCGAGTAAACAAATTTTCCTAATCTTTCTGTTCAAGCGCCATCTAC | 0.363 |
| GATGATTGTTCTCCCAGCTGATGAATTGTATCCATCGAGTAAACAAATTTTCCTAATCTTTCTGTTCAAGCGCCATCTAC | 1.56 |
| GATGATTGTTCTCCCAGCTGATGAATTAGTGAGATCGAGTAAACAAATTTTCCTAATCTTTCTGTTCAAGCGCCATCTAC | 0.357 |
| GATGATTGTTCTCCCAGCTGATGAATTGCCAGCGTCGAGTAAACAAATTTTCCTAATCTTTCTGTTCAAGCGCCATCTAC | 0.672 |
| GATGATTGTTCTCCCAGCTGATGAATTTTATCAGTCGAGTAAACAAATTTTCCTAATCTTTCTGTTCAAGCGCCATCTAC | 0.461 |
| GATGATTGTTCTCCCAGCTGATGAATTTGTTTACTCGAGTAAACAAATTTTCCTAATCTTTCTGTTCAAGCGCCATCTAC | 6.49 |
| GATGATTGTTCTCCCAGCTGATGAATTAACCGAATCGAGTAAACAAATTTTCCTAATCTTTCTGTTCAAGCGCCATCTAC | 0.21 |
| GATGATTGTTCTCCCAGCTGATGAATTTCCGACCTCGAGTAAACAAATTTTCCTAATCTTTCTGTTCAAGCGCCATCTAC | 0.249 |
| GATGATTGTTCTCCCAGCTGATGAATTCCGCTTCTCGAGTAAACAAATTTTCCTAATCTTTCTGTTCAAGCGCCATCTAC | 2.47 |
